Assay results reported in PubChem BioAssay (NCI).
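Cultured in 96-well plates, cells were exposed to test compound for 48 hours across five concentrations. Here, GI50 denotes the concentration required for 50% inhibition of growth.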 For part of its entries the source gives two or more results. This is not the full list of results. There may be further records. For some of these results: The values listed for one entry repeat one measurement in other runs, samples, wells, individuals or studies. Marks in square brackets tell the records apart. A, B and so on number the origins entry by entry.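 TGI marks complete inhibition of growth.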 For some of these results: A record mostly stands for its own series of concentrations, which the source does not state; some values may only mark the edge of a range.

Tests used:
Experiment in all cases: growth of human tumour cells (NCI), 48 h
[1] = system: CCRF-CEM leukemia
[2] = system: K-562 leukemia
[3] = system: NCI/ADR-RES ovarian
[4] = system: SR leukemia
[5] = system: BT-549 breast
[6] = system: NCI-H23 lung
[7] = system: T-47D breast

With `C/C(=N\NC(=S)N1CC2CCC(CC2)C1)c1cccc(C)n1` the TGI [1] was 78.5 nM and 2.39 µM, the TGI [2] was 170 nM and > 34.5 µM and the TGI [3] was 581 nM and 6.73 µM.
`O=S1(=O)CS(=O)(=O)OCCO1` was tested, and the TGI [4] was 13.5 µM and 431 µM.
In the case of `CC(C)n1nc(-c2ccc3oc(N)nc3c2)c2c(N)ncnc21`, the TGI [5] is reported as 59.6 nM [sample A, mean of 2 tests] and 1.02 µM [sample B, mean of 2 tests].
With `Cc1cc(C(=O)NC(CCC(=O)O)C(=O)O)sc1CCC1CNc2nc(N)[nH]c(=O)c2C1` (configuration not stated) the GI50 [6] was 125 nM [sample A, mean of 2 tests] and 1.52 µM [sample B, mean of 2 tests] and the GI50 [7] was 197 nM [sample A, mean of 2 tests] and 6.9 µM [sample B, mean of 2 tests].
